PubChem BioAssay AID488969 (Vanderbilt High Throughput Screening Facility, 2010)
The full ranking holds about 110,000 compounds; the median of “z-score” is about -0.1, and the highest 2% start at about 2. The list shows a part of the results.

Target: Metabotropic glutamate receptor 8 (Rattus norvegicus) (UniProt P70579)
Assay: mGluR8 Gi/Go-coupled signaling modulation – cell-based, rat, thallium flux, HTS, primary screen (AID 488969)
Conditions: HEK293 rat mGluR8, GIRK (G protein-gated inwardly rectifying potassium channel) thallium flux, FluoZin2; at 10 µM; stronger effect = higher value; submaximal glutamate (EC20) added with thallium

UniProt P70579, sequence (P70579 whole entry, looked up): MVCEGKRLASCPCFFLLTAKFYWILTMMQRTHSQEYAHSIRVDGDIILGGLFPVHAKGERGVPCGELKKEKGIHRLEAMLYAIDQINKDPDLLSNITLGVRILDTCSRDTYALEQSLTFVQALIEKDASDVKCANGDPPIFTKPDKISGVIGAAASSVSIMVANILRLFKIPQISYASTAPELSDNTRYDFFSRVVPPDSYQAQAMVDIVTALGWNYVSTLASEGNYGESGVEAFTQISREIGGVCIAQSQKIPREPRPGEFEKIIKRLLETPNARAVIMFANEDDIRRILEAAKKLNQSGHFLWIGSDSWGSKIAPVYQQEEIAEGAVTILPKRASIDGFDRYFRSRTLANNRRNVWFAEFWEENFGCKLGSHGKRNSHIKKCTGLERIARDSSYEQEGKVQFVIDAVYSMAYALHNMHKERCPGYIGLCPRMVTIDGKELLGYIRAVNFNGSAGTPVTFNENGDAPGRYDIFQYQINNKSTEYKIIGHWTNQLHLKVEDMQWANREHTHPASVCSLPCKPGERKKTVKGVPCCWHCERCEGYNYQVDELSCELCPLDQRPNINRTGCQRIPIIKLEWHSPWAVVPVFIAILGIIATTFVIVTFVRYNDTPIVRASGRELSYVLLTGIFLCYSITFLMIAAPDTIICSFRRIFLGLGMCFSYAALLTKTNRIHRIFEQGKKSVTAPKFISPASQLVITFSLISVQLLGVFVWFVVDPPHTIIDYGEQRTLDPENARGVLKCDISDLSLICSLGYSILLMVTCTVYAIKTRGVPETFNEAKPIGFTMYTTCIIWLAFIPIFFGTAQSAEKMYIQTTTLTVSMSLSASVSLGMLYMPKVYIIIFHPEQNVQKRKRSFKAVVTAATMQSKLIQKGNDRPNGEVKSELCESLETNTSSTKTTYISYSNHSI

Compound	z-score
Cn1c(=O)cc(OCCCC(=O)NCCN2CCN(c3ccccc3F)CC2)c2ccccc21	-0.123
Cc1ccc(CNC(=O)C(NS(=O)(=O)c2ccc3nc(C)sc3c2)C(C)C)cc1 (stereo unspecified)	0.342
COCCNC(=O)NC(=O)COC(=O)c1cc([N+](=O)[O-])ccc1Sc1nc(C)cs1	-0.177
O/N=C/c1cc(Br)ccc1OCc1cccc(F)c1	-0.322
O=C(Nc1ccc(F)cc1)c1ccccc1Oc1ccc(C(F)(F)F)cc1[N+](=O)[O-]	-0.194
COC(=O)Nc1sc2nc(C)cc(C)c2c1-n1cccc1	0.141
CCOc1ccc(Cl)cc1S(=O)(=O)N1CCN(c2ccc(F)cc2)CC1	-0.552
CCC(NC(=S)NCc1ccccc1)C(=O)O (stereo unspecified)	-0.526
c1cc2c(cc1C1CCCCC1)c1c3n2CCCNC3CCC1 (stereo unspecified)	0.609
N#Cc1cc2c(nc1SCC(=O)Nc1sc3c(c1C#N)CCC3)CCC2	-0.138
Cc1nn2c(=O)cc(CSc3nc4ccccc4[nH]3)nc2s1	-0.335
Nc1nc(Br)c2c(F)cccc2c1-c1ccc(Cl)cc1	0.246
O=C(CCNS(=O)(=O)c1ccc(Br)s1)NC1CCCC1	0.223
Cc1ccc(OCC(=O)O/N=C(\N)Cc2cccs2)cc1C	-0.196
CCn1c2ccccc2c2nnc(SCc3ccc(C(=O)OC)o3)nc21	-0.221
CC(OC(=O)c1cc2sccc2n1C)C(=O)NCc1ccc2c(c1)OCO2 (stereo unspecified)	-0.018
Nc1nc(SCc2ccc([N+](=O)[O-])cc2)nc2nc3c(cc12)CCCC3	0.353
O=C(NCc1cc(C(F)(F)F)cc(C(F)(F)F)c1)C1CC(c2ccccc2[N+](=O)[O-])=NO1 (stereo unspecified)	-0.0149
CCOc1ccc(C(=O)NCC(=O)OCC(=O)N2CCCCC2)cc1	0.2
CN(C)CCCN1C(=O)C(O)=C(C(=O)c2cc3ccccc3o2)C1c1ccccc1 (stereo unspecified)	-0.0674
CCOC(=O)C(C)(C)NS(=O)(=O)c1ccc(Cl)c([N+](=O)[O-])c1	-0.285
COCc1cc(C)nc2sc(C(=O)OC(C)C)c(N)c12	-0.585
O=C(Nc1ccccc1OC(=O)c1ccc(Cl)cc1)c1ccc(Cl)cc1	-0.196
Cc1cc(C)c2c(N=NN3CCCCC3)[nH]nc2n1	-0.0999

Compound	z-score
COc1ccc(C2c3c(ncn(CCN4CCOCC4)c3=N)Oc3ccc4ccccc4c32)cc1OC (stereo unspecified)	0.922
COCCNC(=O)C(OC(=O)CC1Sc2ccccc2NC1=O)c1ccccc1 (stereo unspecified)	-0.53
CN(CC(=O)N1CCc2ccccc21)S(=O)(=O)c1cccs1	-0.159
CCOC(=O)C1=C(N)OC2=C(C(=O)CC(C)(C)C2)C1c1ccco1 (stereo unspecified)	-0.712
O=C(Nc1ccc(N=Nc2ccccc2)cc1)c1cccc(Cl)c1	0.145
CCSc1nc2ccccc2n1Cc1ccccc1F	0.121
O=S(=O)(c1ccccc1C(F)(F)F)N1CCC(n2cnc3ccccc32)CC1	0.446
O=C(NCc1ccccn1)C1CC(c2ccc(Cl)c(Cl)c2)=NO1 (stereo unspecified)	0.79
N#Cc1nc(-c2cccs2)oc1N1CCOCC1	1.01
COc1ccc(CC(=O)n2nc(-c3ccc(Cl)cc3)nc2NCc2ccco2)cc1	0.246
O=C(NCCC1=CCCCC1)c1ccc2c(c1)N(Cc1ccccc1)C(=O)CS2	-1.88
COc1ccc(N2CCSC2C(=O)NN)cc1 (stereo unspecified)	2.09
CC1(C)CC(=O)C2=C(C1)N(Cc1ccco1)C(=O)C2(NC(=O)c1cccnc1)C(F)(F)F (stereo unspecified)	0.054
COc1nc(NC(C)(C)C)nc(Oc2ccc(=O)n(C)n2)n1	0.992
CCN(CCCNC(=O)CN(C)S(=O)(=O)c1ccc2c(c1)CCC(=O)N2)c1cccc(C)c1	-0.598
CC(C)(Cc1nc2ccccc2[nH]1)C(=O)O	0.49
COc1ccc(CNS(=O)(=O)c2cccc(S(=O)(=O)N3CCOCC3)c2)cc1	0.231
O=C(CCCCn1c(=O)c2ccccc2n(Cc2ccc(F)cc2)c1=O)NCc1ccco1	-1.07
CN(C)S(=O)(=O)c1cccc(C(=O)NCc2ccco2)c1	-0.126
COc1cc(/C=C2/C(=O)ON=C2C)ccc1OCc1ccccc1F	0.886
Cc1ccc(S(=O)(=O)NC(=O)CSc2nc3ccccc3s2)cc1	-0.103
CC(C)CCN1CCNC(=O)C1CC(=O)Nc1ccc(F)cc1 (stereo unspecified)	-0.94
COc1ccc(C(=O)N/C(=C\c2cn(C)c3ccccc23)C(=O)OCC(C)C)cc1	-0.102
Nc1ccc(-n2nncc2-c2ccccc2)cc1	-0.0244

Compound	z-score
Nc1nc(SCCOc2ccccc2)n[nH]1	-0.0514
O=C(CSc1nc(-c2ccco2)cc(C(F)(F)F)n1)NCc1cccs1	-0.1
C=CCn1c(CSc2nc3ccccc3s2)n[nH]c1=S	0.967
CCOC(=O)c1nnn(-c2nonc2N)c1C	-0.267
COc1cc(/C=N/Nc2ccc(F)cc2F)cc(OC)c1O	0.857
Cc1cccc(Oc2c(C=O)c3ccccc3n2C)c1	-0.785
CCc1nc(SCC(=O)Nc2cccc(C(F)(F)F)c2)c2c(=O)n(C)c(=O)n(C)c2n1	-0.0329
COc1cccc(C(=O)Nc2ccc(N3CCN(Cc4ccccc4)CC3)cc2)c1	-0.07
CNC(=O)c1cccc(N2CCCC2=O)c1	-0.0243
Cc1noc(C)c1CSc1nnc2c(C)cc3ccccc3n12	0.0174
Cc1ccc(NC2(C#N)C(=O)Nc3ccccc32)cc1 (stereo unspecified)	-0.263
CC(OC(=O)c1ccc(F)cc1)C(=O)Nc1nc(-c2cccc([N+](=O)[O-])c2)cs1 (stereo unspecified)	-0.681
COC(=O)C1=C(C)N(c2ccc(C(=O)OC)cc2)C(=O)C1	0.602
COc1ccc(C(=O)CCC(=O)O)cc1	-0.601
COCCNC(=O)CCc1c(C)nc2c(-c3ccc(F)cc3)c(C)nn2c1C	-0.234
CCOC(=O)c1c(C)[nH]c(C(=O)COC(=O)COc2ccccc2C=O)c1C	-0.645
CCn1c2ccccc2c2cc(NC(=O)N3CCOCC3)ccc21	-0.213
O=C(O)CCNS(=O)(=O)c1ccc(Oc2ccccc2Cl)cc1	0.0172
O=C(CCCSc1nc2ccccc2[nH]1)NC1=NCCS1	-0.389
COc1ccc(S(=O)(=O)N(C)CC(=O)Nc2cccc(C(C)=O)c2)cc1C	0.107
Cn1nc(N)c2c(-c3ccccc3)c(C#N)c(N)nc21	0.569
COc1ccc(CN2CC34C=CC(O3)C(C(=O)O)C4C2=O)cc1 (stereo unspecified)	0.133
Cc1c(Cl)cccc1NC(CC(=O)c1ccccc1)C(=O)OCC(=O)c1cccs1 (stereo unspecified)	-0.547
